Some of the results follow.
The sequences below were run against T1, OsWOX13 (Oryza sativa, UniProt Q5QMM3 1-267) (assay: protein-binding microarray (RPBM); PBS, 2% BSA, 51.3 ng/ul salmon testes DNA, 50 uM zinc acetate, 200 nM TF, 25 C, 1 h; high values mean tight binding). Settings: protein: recombinant; tags: N-terminal polyhistidine and DsRed monomer fusion (pET32a); label: CyDye5-dUTP incorporated in the synthesized complementary strand; 3' TTTTT single-stranded linker to array surface; dsDNA, one strand shown.
T1 sequence: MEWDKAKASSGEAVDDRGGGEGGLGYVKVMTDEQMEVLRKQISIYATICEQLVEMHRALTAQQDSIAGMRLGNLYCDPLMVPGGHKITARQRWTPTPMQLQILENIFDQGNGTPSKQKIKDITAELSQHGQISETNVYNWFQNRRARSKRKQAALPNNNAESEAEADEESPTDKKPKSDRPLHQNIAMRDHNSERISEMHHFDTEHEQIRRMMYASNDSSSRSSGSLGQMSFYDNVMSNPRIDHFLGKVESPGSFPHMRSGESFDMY
Summary of the method: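 Ni–NTA purification followed expression in E. coli BL21-CodonPlus of transcription factors fused N-terminally to a polyhistidine tag and DsRed. At 200 nM in PBS with 2% BSA, salmon testes DNA and 50 µM zinc acetate, the protein was incubated for 1 h at 25 °C with a custom Agilent array that had been primer-extended with Cy5-dUTP and blocked with 2% BSA. After washing, the array was read on an Axon 4000B scanner. The binding signal is per-feature fluorescence intensity in arbitrary units.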

Sequence	binding signal
ATAGATAATATGATAATTTTGTATCAGTGACTAGACCATACGGAGTCACCTAGTGCAG	11200 fluorescence intensity (a.u.)
TAGTGATTATTATGAAATGACCATATAAGTTTATGCTTACCGGAGTCACCTAGTGCAG	16700 fluorescence intensity (a.u.)
ACTGATTAGTGGATATGCTTTATATATGTAATTAGGATGCCGGAGTCACCTAGTGCAG	53000 fluorescence intensity (a.u.)
CCAAATTTTAGTAATTATATAAGAAATCCTGCCAAAATTTCGGAGTCACCTAGTGCAG	11300 fluorescence intensity (a.u.)
CAAATATAGTGTAATTATATTATAACTATTATGTAACTACCGGAGTCACCTAGTGCAG	4600 fluorescence intensity (a.u.)
CTACCCAATCAAATAATATCCCCATCCACATCTTGATTCTCGGAGTCACCTAGTGCAG	5230 fluorescence intensity (a.u.)
GCAAATGTAGGTAAGATTGAGATTGACTTTATGTGGGTCCCGGAGTCACCTAGTGCAG	12500 fluorescence intensity (a.u.)
TAATTATTGATTTTCACGCCCATTCTTTATGTCATACTATCGGAGTCACCTAGTGCAG	14500 fluorescence intensity (a.u.)
CTGAAAATTAACGAAACAAGAGCACATTGTCTCTACAACTCGGAGTCACCTAGTGCAG	4630 fluorescence intensity (a.u.)
TTCAGGATTGAATTTTAGACTCGATTGCAAATTGAAGGACCGGAGTCACCTAGTGCAG	32000 fluorescence intensity (a.u.)
ATTTATTATACTAAATTATGTCATATTTTATTTTAGGTTACGGAGTCACCTAGTGCAG	7170 fluorescence intensity (a.u.)
AGTATAATTATTGTTTATAGTACAAAGACTTCAAATCTTGCGGAGTCACCTAGTGCAG	16600 fluorescence intensity (a.u.)
TTTAATTTTATGTTTTGATTTTAATCTATATCTCTTCTCTCGGAGTCACCTAGTGCAG	22600 fluorescence intensity (a.u.)
TGATTATTGATGACGGACGTAAGTTAAAGGATTATATTAACGGAGTCACCTAGTGCAG	3520 fluorescence intensity (a.u.)
GCCTCGTTTGATTGGTCACATGCATGGAAAGAGACTCACACGGAGTCACCTAGTGCAG	27000 fluorescence intensity (a.u.)
TAGGGCCCCACTGATTGATCGTGAGCTGATTGCAAGTTAACGGAGTCACCTAGTGCAG	23700 fluorescence intensity (a.u.)
AATATGATTATCTCTTACAAAGCCTATACAACCAAATTACCGGAGTCACCTAGTGCAG	10600 fluorescence intensity (a.u.)
TTAACGGGTGATTAACGATTAATTAATTACTAATGATGTTCGGAGTCACCTAGTGCAG	45500 fluorescence intensity (a.u.)
CTTGAGCAATTCAATCAAGTCGAGTTATAGTTCTAACTTGCGGAGTCACCTAGTGCAG	17700 fluorescence intensity (a.u.)
CAACATTATTGGATTTAGGTTAAATCATTTAGCATCATCTCGGAGTCACCTAGTGCAG	3580 fluorescence intensity (a.u.)
TGTTGCTGTTGATTAGCTCTCACCTAATTTGTTGTGTATGCGGAGTCACCTAGTGCAG	18100 fluorescence intensity (a.u.)
TTCTTGACTGAAGATACTGTGTGTATGAGTTCTCATCGTACGGAGTCACCTAGTGCAG	10700 fluorescence intensity (a.u.)
GTAAATACACTAAAATTATATATGTAATTTAGGGACTTACCGGAGTCACCTAGTGCAG	9660 fluorescence intensity (a.u.)
CCAGTAATTATTGCAGCAGACATGAAATAATGCAATTGCCCGGAGTCACCTAGTGCAG	24200 fluorescence intensity (a.u.)
TCGGCAATACAAATCAATCAAATCACAAACTTCCTCTGCCCGGAGTCACCTAGTGCAG	15300 fluorescence intensity (a.u.)
CAAATGTAATTATAGTACAATCGTAGTATAATTGCACTGTCGGAGTCACCTAGTGCAG	18900 fluorescence intensity (a.u.)
AATAATTGTGGACCAGATCATTTTCGTCCGTTCGAAACTACGGAGTCACCTAGTGCAG	7560 fluorescence intensity (a.u.)

Sequence	binding signal
TTAATTAATTGCAAGCTAATTAAGCTAGCTGATAACCATACGGAGTCACCTAGTGCAG	35300 fluorescence intensity (a.u.)
TTGGATTGAATAAATTTCATAAGAATTTTAAAGGATTTTACGGAGTCACCTAGTGCAG	16300 fluorescence intensity (a.u.)
CACTAATTTTGTAAGGTGTGGCTTCTAATATAAGTTGTGCCGGAGTCACCTAGTGCAG	18900 fluorescence intensity (a.u.)
ACAAATGGAAGTTAATATAATTAACTCAATTTAGTATCGTCGGAGTCACCTAGTGCAG	20700 fluorescence intensity (a.u.)
CATTAATTATGCTAGAGATTTGTCACTTGTCGACGTCGCTCGGAGTCACCTAGTGCAG	36600 fluorescence intensity (a.u.)
TAAATTGAGAAAGTCTAGTTTTAGTAATCGACCAATTCGTCGGAGTCACCTAGTGCAG	11000 fluorescence intensity (a.u.)
TTAAGACATATAATTAGAAATCCGTTATAACAAGCAGGTACGGAGTCACCTAGTGCAG	7090 fluorescence intensity (a.u.)
CTAAACTCCCTATCAATTTTCACCACCTCCACCAAACAAGCGGAGTCACCTAGTGCAG	6760 fluorescence intensity (a.u.)
CCAATCCTAAATTTAAATATGTACATACATGATTCGTTACCGGAGTCACCTAGTGCAG	3730 fluorescence intensity (a.u.)
CATGATGTTATCATTAACATATGTGAGTCTGATGAATTATCGGAGTCACCTAGTGCAG	5420 fluorescence intensity (a.u.)
TCTAACATTATTGATTGTTTCTCTTTTAGTTGAATAGCTACGGAGTCACCTAGTGCAG	35900 fluorescence intensity (a.u.)
TTCTCAATCAATTACAGCTCTCTTCTATTTAATTCTAAACCGGAGTCACCTAGTGCAG	30900 fluorescence intensity (a.u.)
TAGCTGACGGCAATCAGCCCGCCGCCTTTCCAGTCGTTGTCGGAGTCACCTAGTGCAG	3980 fluorescence intensity (a.u.)
ATCCAATCCAATCCAATCCACGATCCAATTTGGTTGCTGGCGGAGTCACCTAGTGCAG	6960 fluorescence intensity (a.u.)
GCTCTAGATGTAATTATGGGAGATATTAATCATAGATTTCCGGAGTCACCTAGTGCAG	7350 fluorescence intensity (a.u.)
TCCTTTTGTTTTCCTATCTAATTACTTCTTATATCTATTCCGGAGTCACCTAGTGCAG	4090 fluorescence intensity (a.u.)
ATAAATTATCCGAGTACTAATACGTTGAATAAGGTACAAACGGAGTCACCTAGTGCAG	3520 fluorescence intensity (a.u.)
TTTATAATTTCTAAATCTAAATTAAACAAAACAGTTAATACGGAGTCACCTAGTGCAG	3910 fluorescence intensity (a.u.)
TAAACCATCAAATTGACATGAGTAGCTCGCCAAATCCAAACGGAGTCACCTAGTGCAG	17500 fluorescence intensity (a.u.)
AATTTAATTAATCATGGCATTGGGCAAAAGCTTATAAAAGCGGAGTCACCTAGTGCAG	21400 fluorescence intensity (a.u.)
ATATATATATATATATATATATACACTATATACTATACCGCGGAGTCACCTAGTGCAG	19200 fluorescence intensity (a.u.)
CAAAGTGGATTGAACTGTCGCGGTTTGACGCGAATCTCGACGGAGTCACCTAGTGCAG	4510 fluorescence intensity (a.u.)
CAAATAGGAGATGAATGATTTAAGACTACCACCCCGTTCACGGAGTCACCTAGTGCAG	4540 fluorescence intensity (a.u.)
AGTCAGATGCTCATAATTGAAAGAAATGCTAGGGCCTGAACGGAGTCACCTAGTGCAG	15200 fluorescence intensity (a.u.)
ACAACAGGCTGTAATTGAGTTATGGACTAGAGATAAGTTTCGGAGTCACCTAGTGCAG	8270 fluorescence intensity (a.u.)
AGAACTAATTTAACACGTAACAAAAGTTTAATGACCGAATCGGAGTCACCTAGTGCAG	14500 fluorescence intensity (a.u.)
ATCATGATAATTGATGAGTTAAATGAATCAGCTGGATATTCGGAGTCACCTAGTGCAG	42100 fluorescence intensity (a.u.)
